Publication PMC4336329 (PLoS ONE, 2015)
In all, about 310,000 compounds went through this assay and about 14,000 (4.5%) showed an effect of 50% or more. The effect is printed as a negative number. The list shows a part of the results.

target: human ether-à-go-go-related gene (hERG) potassium channel (human, UniProt Q12809); assay: primary screen, population patch clamp on CHO cells stably expressing hERG
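Further: peak tail current of the secondary pulse compared with the same well before compound.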

human ether-à-go-go-related gene (hERG) potassium channel, sequence (Q12809 whole entry, looked up): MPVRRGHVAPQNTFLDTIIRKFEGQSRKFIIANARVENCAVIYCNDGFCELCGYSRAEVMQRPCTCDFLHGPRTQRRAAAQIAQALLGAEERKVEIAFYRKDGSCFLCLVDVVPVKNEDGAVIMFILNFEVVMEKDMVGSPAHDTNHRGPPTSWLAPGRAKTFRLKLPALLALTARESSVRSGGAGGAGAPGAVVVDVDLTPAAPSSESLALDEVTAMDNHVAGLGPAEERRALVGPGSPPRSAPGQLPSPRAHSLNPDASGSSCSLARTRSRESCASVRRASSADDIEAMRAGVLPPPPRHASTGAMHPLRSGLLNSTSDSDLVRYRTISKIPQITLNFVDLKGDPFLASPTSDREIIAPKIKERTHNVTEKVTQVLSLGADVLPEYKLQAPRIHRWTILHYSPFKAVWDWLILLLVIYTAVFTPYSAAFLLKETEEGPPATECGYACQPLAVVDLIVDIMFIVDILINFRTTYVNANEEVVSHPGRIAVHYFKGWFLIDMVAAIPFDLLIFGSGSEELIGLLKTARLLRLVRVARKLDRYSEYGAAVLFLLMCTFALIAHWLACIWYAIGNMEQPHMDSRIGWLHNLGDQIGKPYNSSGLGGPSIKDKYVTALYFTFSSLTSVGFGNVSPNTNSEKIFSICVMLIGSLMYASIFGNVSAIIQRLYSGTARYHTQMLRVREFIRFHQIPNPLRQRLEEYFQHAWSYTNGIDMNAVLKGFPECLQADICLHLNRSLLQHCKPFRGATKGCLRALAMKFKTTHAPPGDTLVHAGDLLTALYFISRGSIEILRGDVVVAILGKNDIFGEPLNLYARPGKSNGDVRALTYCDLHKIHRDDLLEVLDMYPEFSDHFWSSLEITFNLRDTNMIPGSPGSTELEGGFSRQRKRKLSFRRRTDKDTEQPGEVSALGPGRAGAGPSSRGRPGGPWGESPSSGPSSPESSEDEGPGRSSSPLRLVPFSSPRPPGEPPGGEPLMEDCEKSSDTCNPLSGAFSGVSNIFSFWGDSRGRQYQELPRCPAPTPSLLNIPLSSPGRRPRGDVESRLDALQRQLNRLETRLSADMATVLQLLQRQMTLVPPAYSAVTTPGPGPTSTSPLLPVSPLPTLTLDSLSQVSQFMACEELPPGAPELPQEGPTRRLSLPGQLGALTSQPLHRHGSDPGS

Q: With `COc1ccccc1NS(=O)(=O)c1cc(NC(=O)C(C)(C)C)ccc1N1CCOCC1` as the compound, how does the “hERG current change (%, negative = inhibition) at 10uM” value read?
A: -36.4%

Q: For `Cc1ccccc1NC(=O)COc1cccc2c1CCNC2=O`, which “hERG current change (%, negative = inhibition) at 10uM” value is on record?
A: -3.93%

Q: For `NC(=O)NC(=O)CSc1nc(C2CCCCC2)n(-c2ccccc2)n1`, which “hERG current change (%, negative = inhibition) at 10uM” value is on record?
A: 18.7%

Q: For `COc1cc(Cl)c(C)cc1NC(=O)CCCN1C(=O)CCC1=O`, which “hERG current change (%, negative = inhibition) at 10uM” value is on record?
A: 2.41%

Q: With `CCN(CC)c1nc2n(c(=O)n1)CCO2` as the compound, how does the “hERG current change (%, negative = inhibition) at 10uM” value read?
A: 8.24%

Q: For `COc1ccc(-c2csc(NC(CO)c3nc4ccccc4n3Cc3ccc(C)cc3)n2)cc1` (centres unmarked), which “hERG current change (%, negative = inhibition) at 10uM” value is on record?
A: 12.4%

Q: For `Cc1ccc(NC(=O)c2ccc(NS(=O)(=O)/C=C/c3ccccc3)cc2)nc1`, which “hERG current change (%, negative = inhibition) at 10uM” value is on record?
A: 0.977%

Q: How did the “hERG current change (%, negative = inhibition) at 10uM” value turn out when `CC(=O)NC(CC(=O)Oc1ccc(C)cc1Br)c1ccccc1` (centres unmarked) was run?
A: -14%

Q: With `Cc1ccnc(NS(=O)(=O)c2ccc(CC(C)C)cc2)c1` as the compound, how does the “hERG current change (%, negative = inhibition) at 10uM” value read?
A: 9.2%

Q: With `COC(=O)c1cc(S(=O)(=O)N2c3ccccc3CC2C)c[nH]1` (centres unmarked) as the compound, how does the “hERG current change (%, negative = inhibition) at 10uM” value read?
A: -12.3%

Q: How did the “hERG current change (%, negative = inhibition) at 10uM” value turn out when `CCOc1ccc(C(=O)Oc2cc(C)[nH]c(=O)c2[N+](=O)[O-])cc1` was run?
A: 9.6%

Q: With `Cc1ccc(Cl)cc1NC(=O)C(=O)N1CCCCC1` as the compound, how does the “hERG current change (%, negative = inhibition) at 10uM” value read?
A: 13.4%

Q: For `COC(=O)c1ccccc1NC(=O)CN1CCC(n2nnc3cc(F)ccc32)CC1`, which “hERG current change (%, negative = inhibition) at 10uM” value is on record?
A: -14.3%

Q: How did the “hERG current change (%, negative = inhibition) at 10uM” value turn out when `Cn1ccc(/C=N/N=C2/NC(=O)CS2)n1` was run?
A: 5.65%

Q: How did the “hERG current change (%, negative = inhibition) at 10uM” value turn out when `CCCCC(=O)Nc1cccc(NC(=O)C(C)C)c1` was run?
A: 13.8%

Q: With `CCC1CC(/C(C)=N/NC(N)=O)OC1=O` (centres unmarked) as the compound, how does the “hERG current change (%, negative = inhibition) at 10uM” value read?
A: 9.19%

Q: How did the “hERG current change (%, negative = inhibition) at 10uM” value turn out when `CC(C)(C)c1nc(NCCN2CCOCC2)c2nnn(Cc3ccccc3Cl)c2n1` was run?
A: 10.7%

Q: Which “hERG current change (%, negative = inhibition) at 10uM” value does the source give for `CC(C)CCN1C(=O)c2ccc(C(=O)N3CCCCC3)cc2C1=O` here?
A: -6.98%

Q: Which “hERG current change (%, negative = inhibition) at 10uM” value does the source give for `COc1ccc(S(=O)(=O)N2CCCC(C(=O)NCC3CCCO3)C2)cc1OC` (centres unmarked) here?
A: 11%

Q: For `CC1(C)CC(=O)C=C(Nc2ccc3c(c2)CCC3)C1`, which “hERG current change (%, negative = inhibition) at 10uM” value is on record?
A: -2.73%

Q: With `C[C@H](NC(=O)[C@@H]1CSC2c3ccccc3C(=O)N21)C(=O)NC1CCCC1` (some centres unmarked) as the compound, how does the “hERG current change (%, negative = inhibition) at 10uM” value read?
A: 10.5%

Q: How did the “hERG current change (%, negative = inhibition) at 10uM” value turn out when `CC1=C(C(=O)NCc2ccc(Cl)cc2)C2(CCC(C)CC2)OC1=O` (centres unmarked) was run?
A: 7.11%

Q: For `CCc1nn(CC(=O)NCCN2CCN(C)CC2)c(=O)c2cc3occc3n12`, which “hERG current change (%, negative = inhibition) at 10uM” value is on record?
A: 2.39%

Q: How did the “hERG current change (%, negative = inhibition) at 10uM” value turn out when `CCOc1ccccc1/C=c1\sc2ncnn2c1=O` was run?
A: -22.7%

Q: `Cc1ccc(NS(=O)(=O)c2ccc(C(=O)NCc3cccnc3)cc2)cc1` was tested. Which “hERG current change (%, negative = inhibition) at 10uM” value did it give?
A: -4.14%

Q: `CC(C)(C)Cc1nc(-c2ccccn2)no1` was tested. Which “hERG current change (%, negative = inhibition) at 10uM” value did it give?
A: 4.02%
